Data: PubChem BioAssay AID887 (National Center for Advancing Translational Sciences (NCATS), 2007)
The campaign covered roughly 74,000 compounds. About 1,100 (1.5%) were called active. This list was built around the results that the source calls inconclusive (neither active nor inactive); the mix of calls is not that of the screen. The call rests on the fitted dose curve; in most records, active means well fitted inhibition curve with a large enough effect; inconclusive means small, poorly fitted or top-dose-only effect; inactive means no such curve, though single readings can be large or run the other way. Potencies of inconclusive entries are left out as doubtful fits.

Target: Polyunsaturated fatty acid lipoxygenase ALOX15 (Homo sapiens) (UniProt P16050)
Test: qHTS Assay for Inhibitors of 15-hLO (15-human lipoxygenase); further: nearly all actives have a fitted effect of over 55% in size
Conditions: purified 15hLO-1, xylenol orange hydroperoxide absorbance; activity change, negative = inhibition: at 57.1 µM (top of the series) unless noted
Procedure, shortened: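 40 nM 15hLO-1 + cpd, 15 min RT; start w/ 50 uM AA (final), 6 min RT; stop/detect w/ 200 uM XO + 300 uM Fe(II) in 50 mM H2SO4, 30 min; A573/A405. Buffer 25 mM Hepes pH 7.5, 0.01% Triton X-100. No-enzyme wells as negative control.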
On the % scale 0 is the no-effect control and ±100 the full control effect; potency means the concentration at half of the fitted maximal effect; tags describe the fitted curve by direction and shape.

UniProt P16050, sequence (P16050 whole entry, looked up): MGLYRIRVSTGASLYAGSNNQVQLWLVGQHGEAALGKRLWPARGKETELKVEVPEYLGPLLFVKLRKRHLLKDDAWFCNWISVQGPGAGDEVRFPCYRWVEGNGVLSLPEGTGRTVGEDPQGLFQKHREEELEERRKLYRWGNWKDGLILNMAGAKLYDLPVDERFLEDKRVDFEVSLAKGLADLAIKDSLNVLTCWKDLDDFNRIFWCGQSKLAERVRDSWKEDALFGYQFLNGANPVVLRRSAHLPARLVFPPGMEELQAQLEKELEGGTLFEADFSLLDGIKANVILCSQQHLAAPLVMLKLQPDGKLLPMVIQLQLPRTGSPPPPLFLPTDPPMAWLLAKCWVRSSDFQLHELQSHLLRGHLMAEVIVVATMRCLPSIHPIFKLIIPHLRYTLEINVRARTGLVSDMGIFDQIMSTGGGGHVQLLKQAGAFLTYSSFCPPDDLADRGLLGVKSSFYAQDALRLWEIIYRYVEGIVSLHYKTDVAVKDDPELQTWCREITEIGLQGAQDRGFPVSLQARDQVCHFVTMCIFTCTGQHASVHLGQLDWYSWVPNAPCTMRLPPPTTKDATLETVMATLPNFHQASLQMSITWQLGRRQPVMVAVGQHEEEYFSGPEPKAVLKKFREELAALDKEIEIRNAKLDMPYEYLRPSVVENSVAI

Row | Compound | Potency | activity change, negative = inhibition
1 | CCOc1ccc(OCC(=O)c2c(O)c3ccccc3oc2=O)cc1 | active: 15.8 µM | –
2 | CN(C)c1ccc(O)c2c1C[C@@H]1C[C@H]3C(N(C)C)C(=O)C(C(N)=O)=C(O)[C@@]3(O)C(=O)C1=C2O (stereo partly drawn) | – | inactive: 2.39%
3 | COc1ccc(CCn2c(=N)c(C(=O)NCc3ccco3)cc3c(=O)n4cccc(C)c4nc32)cc1 | inconclusive [inhibitor, single point] | –
4 | Cc1ccc(C(=O)CSc2nnc(CNc3nc(-c4ccccc4)cs3)n2C)cc1 | inconclusive [inhibitor, partial curve] | –
5 | COc1ccc2[nH]cc(CCNc3ncncc3-c3cccnc3)c2c1 | inconclusive [inhibitor, single point] | –
6 | COc1ccc2c(c1)S/C(=C\C(=O)c1ccncc1)N2C | inconclusive [inhibitor, partial curve] | –
7 | Cc1oc(-c2ccc(Cl)cc2)cc1-c1nn2c(-c3ccoc3C)nnc2s1 | inconclusive [inhibitor, single point] | –
8 | C=C(C)CSC1=C(C#N)C(c2ccccc2)CC(=O)N1 (stereo not drawn) | inconclusive [inhibitor, single point] | –
9 | O=C(c1ccco1)N1CCN(C(=O)c2cc(-c3ccccn3)nc3ccc(Cl)cc23)CC1 | inconclusive [inhibitor, partial curve] | –
10 | CCn1nc(C(=O)OCC(=O)c2c[nH]c3ccccc23)c2ccccc2c1=O | inconclusive [inhibitor, partial curve] | –
11 | CCOC(=O)c1cnc2c(C#N)c(C)nn2c1-c1ccccc1 | inconclusive [inhibitor, single point] | –
12 | CN(C)c1ccc(-c2cncnc2NCCN2CCOCC2)cc1 | inconclusive [inhibitor, single point] | –
13 | Cn1cccc1C(=O)N1CCC[C@@]2(CCN(Cc3cc(C(F)(F)F)cc(C(F)(F)F)c3)C2)C1 | – | inactive: -5.41%
14 | COc1cc2c(cc1OC)CN(C(=O)c1ccccc1C(=O)O)CC2 | inconclusive [inhibitor, partial curve] | –
15 | CCOC(=O)c1c(NC(=O)c2nn(CC)cc2Br)c(C#N)cn1-c1ccccc1 | – | inactive: -9.18%
16 | Cc1ccc(C(C(=O)NC2CCCCC2)N(C(=O)c2csnn2)C2CC2)o1 (stereo not drawn) | – | inactive: 3.9%
17 | Cc1ccc2c(c1)c(C)c(C)n2CC(O)CN1CCOCC1 (stereo not drawn) | inconclusive [inhibitor, single point] | –
18 | CC(C)CN1C(=O)c2ccc(C(=O)Nc3nccs3)cc2C1=O | – | inactive: 1.55%
19 | CC(C)(C)C1=Nn2c(nnc2-c2n[nH]c3c2CCC3)SC1 | inconclusive [inhibitor, full curve, poor fit] | –
20 | COCc1cc(CN2CCCC2)c(O)c2ncccc12 | active: 2.51 µM | –
21 | CC(=O)[C@@H]1[C@@H]2C(=O)N(c3ccc(F)c(Cl)c3)C(=O)[C@@H]2C2c3ccccc3C=CN21 (stereo partly drawn) | inconclusive [inhibitor, single point] | –
22 | C[C@@H](CSC(=N)N)C(N)=O | – | inactive: 9.91% [at 11.4 µM]

Row | Compound | Potency | activity change, negative = inhibition
23 | O=C(CC1Sc2ncnn2C1=O)Nc1ccc(Br)cc1 (stereo not drawn) | inconclusive [inhibitor, partial curve] | –
24 | CCc1ccccc1NS(=O)(=O)c1ccc2[nH]cc(C(=O)NCC3CCCO3)c(=O)c2c1 (stereo not drawn) | – | inactive: -9.02%
25 | NC(Cc1c[nH]c2ccccc12)C(=O)O (stereo not drawn) | active: 7.94 µM | –
26 | O=C(NCc1cccs1)C1CCN(S(=O)(=O)c2ccc(Br)s2)CC1 | inconclusive [inhibitor, single point] | –
27 | O=C(NCc1ccc2c(c1)OCO2)c1ccc(COc2cccc(Cl)c2)o1 | inconclusive [inhibitor, single point] | –
28 | COc1ccc(CN(C(=O)c2ccco2)c2ccc(C)cc2)cc1OC | inconclusive [inhibitor, full curve] | –
29 | CC1CCN(S(=O)(=O)c2ccc3c(c2)oc(=O)n3CC(=O)NCc2ccc3c(c2)OCO3)CC1 | inconclusive [inhibitor, partial curve] | –
30 | CN1CCc2c(sc3c2c(=O)n(-c2ccccc2)c2nncn32)C1 | inconclusive [inhibitor, single point] | –
31 | COc1ccc(CCNC(=O)c2c(O)c3cccc4c3n(c2=O)CC4)cc1 | inconclusive [inhibitor, full curve, poor fit] | –
32 | Cc1ccc(S(=O)(=O)c2cc3c(=O)n4cccc(C)c4nc3n(Cc3ccco3)c2=N)cc1C | inconclusive [inhibitor, partial curve] | –
33 | Cc1ccc(C)n1CCN1CCN(C(=O)CSc2nc3ccccc3nc2N2CCOCC2)CC1 | inconclusive [inhibitor, single point] | –
34 | CN(CC(=O)Nc1sccc1C#N)C1CCCCC1 | inconclusive [inhibitor, partial curve] | –
35 | CC(=O)Nc1nc(C)c(Oc2ccccc2)c(=O)[nH]1 | inconclusive [inhibitor, single point] | –
36 | O=C(CSc1nc2scc(-c3ccco3)c2c(=O)n1-c1ccccc1)N1CCOCC1 | active: 1.58 µM | –
37 | CN(C)S(=O)(=O)c1nc(Cl)c2[nH]cnc2n1 | – | inactive: -1.85% [at 11.4 µM]
38 | CCc1c(C)nc(N)n2c(SCC(=O)N3CCN(c4ccccc4F)CC3)nnc12 | inconclusive [inhibitor, single point] | –
39 | Cc1cccc(N2C(N)=C(C#N)C(C#N)(C#N)C2c2ccccc2)c1 (stereo not drawn) | inconclusive [inhibitor, single point] | –
40 | O=C(O)c1c(Sc2ccccc2)c2cc(Cl)ccc2n1Cc1ccc(Cl)cc1 | active: 25.1 µM | –
41 | Cc1ccc(NC(=O)C2CC(=O)NC(Nc3cccc(C)c3)=N2)cc1 (stereo not drawn) | inconclusive [inhibitor, partial curve] | –
42 | CN(C)c1ccnc2sc(C(=O)NCc3ccccc3)c(N)c12 | inconclusive [inhibitor, single point] | –
43 | CC1=C(CC[C@H](C)CO)O[C@@H]2C[C@@H]3[C@H]4CC[C@H]5C[C@@H](O)CC[C@]5(C)[C@@H]4CC(=O)[C@@]3(C)[C@@H]12 | – | inactive: 18.5% [at 11.4 µM]
